Test results from publication PMC4336329 (PLoS ONE, 2015).
In all, about 310,000 compounds went through this assay and about 14,000 (4.5%) showed an effect of 50% or more. The effect is printed as a negative number. The list shows a part of the results.

Each compound was assayed against human ether-à-go-go-related gene (hERG) potassium channel (human, UniProt Q12809) (assay: primary screen, population patch clamp on CHO cells stably expressing hERG).
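Also: peak tail current of the secondary pulse compared with the same well before compound.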

Chain of human ether-à-go-go-related gene (hERG) potassium channel (Q12809 whole entry, looked up): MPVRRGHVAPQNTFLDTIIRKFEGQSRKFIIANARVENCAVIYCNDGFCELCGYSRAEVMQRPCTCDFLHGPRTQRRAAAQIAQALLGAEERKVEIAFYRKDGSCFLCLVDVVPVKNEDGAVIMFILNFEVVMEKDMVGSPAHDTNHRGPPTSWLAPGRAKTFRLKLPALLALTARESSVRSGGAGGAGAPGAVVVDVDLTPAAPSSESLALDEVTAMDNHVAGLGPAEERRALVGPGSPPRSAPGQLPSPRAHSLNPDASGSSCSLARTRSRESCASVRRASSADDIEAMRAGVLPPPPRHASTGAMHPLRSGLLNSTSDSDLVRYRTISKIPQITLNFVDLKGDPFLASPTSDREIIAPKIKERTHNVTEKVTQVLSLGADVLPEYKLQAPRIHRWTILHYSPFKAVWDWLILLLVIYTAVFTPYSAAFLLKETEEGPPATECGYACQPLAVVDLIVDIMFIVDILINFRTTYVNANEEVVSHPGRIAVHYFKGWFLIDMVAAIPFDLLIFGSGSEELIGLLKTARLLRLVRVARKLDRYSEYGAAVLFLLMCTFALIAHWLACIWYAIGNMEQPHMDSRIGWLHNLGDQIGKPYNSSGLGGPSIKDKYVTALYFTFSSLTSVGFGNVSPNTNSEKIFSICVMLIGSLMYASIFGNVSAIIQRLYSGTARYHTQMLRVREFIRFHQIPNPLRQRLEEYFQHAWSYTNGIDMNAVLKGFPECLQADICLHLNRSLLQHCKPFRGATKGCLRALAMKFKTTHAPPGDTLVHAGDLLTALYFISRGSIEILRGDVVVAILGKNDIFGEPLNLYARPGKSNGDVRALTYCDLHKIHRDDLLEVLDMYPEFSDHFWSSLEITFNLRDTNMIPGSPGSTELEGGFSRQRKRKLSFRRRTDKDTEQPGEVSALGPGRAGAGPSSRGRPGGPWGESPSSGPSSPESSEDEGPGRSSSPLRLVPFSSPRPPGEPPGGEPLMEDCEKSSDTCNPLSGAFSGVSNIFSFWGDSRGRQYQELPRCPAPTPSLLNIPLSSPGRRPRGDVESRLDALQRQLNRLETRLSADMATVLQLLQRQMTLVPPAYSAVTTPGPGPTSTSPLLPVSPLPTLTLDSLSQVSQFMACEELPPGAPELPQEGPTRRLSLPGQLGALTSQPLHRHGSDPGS

SMILES	hERG current change (%, negative = inhibition) at 10uM [%]
CN=C(Nc1ccccc1)SC1CC(=O)N(c2ccc(C(=O)OC)cc2)C1=O (stereo not shown)	10.6
Cc1nn(Cc2ccccc2)c(C)c1NC(=O)c1noc2c1CCc1ccccc1-2	-0.841
Cn1c(CN2CCCCC2)c(C#N)c2ccccc21	-25.6
Cc1ccccc1N(CC(=O)N1CCN(c2ccccc2)CC1)S(C)(=O)=O	-2.54
Cc1ccccc1NC1=NCC(C)S1 (stereo not shown)	-2.32
C=CCOC(=O)C1=C(C)OC(N)=C(C(=O)OCC)C12C(=O)N(CC(N)=O)c1ccccc12 (stereo not shown)	0.469
CC(C)c1ccc(NC(=O)CSc2nc3ncccc3[nH]2)cc1	1.46
COC(=O)[C@H](C)NC(=O)NCc1ccccc1	1.58
CCCNC(=O)COc1cccc(C(=O)NCc2ccccc2)c1	-1.46
Nc1ccc2cc(Br)ccc2c1	1.11
C=CCN1C(=O)/C(=C2/Sc3ccc(OC)cc3N2C)SC1=Nc1ccc(OC)cc1	12.6
O=C(NCCCN1CCOCC1)c1cc(-c2ccc(F)cc2)on1	-19.5
Cc1onc(-c2ccccc2Cl)c1C(=O)Nc1ccc(CN2CCCC2)cc1	6.77
CN1CC=C2C(C#N)=C(N)C(C#N)(C#N)C(Cc3ccccc3)C2C1 (stereo not shown)	-6.19
CCOC(=O)C1(C)C=C(Nc2ccc(OCC)cc2)C(=O)N1c1ccccc1 (stereo not shown)	23.6
CC(NS(=O)(=O)c1ccc(CCC(=O)NCc2cccnc2)cc1)c1ccccc1 (stereo not shown)	-1.35
CC1CCC(C(C)C)C(OC(=O)Cn2c(-c3ccc(Cl)cc3)[n+](C)c3ccccc32)C1.[Cl-] (stereo not shown)	-82.9
COc1ccc(S(=O)(=O)N(C)CC(=O)Nc2cccc(C(C)=O)c2)cc1C	-26.4
COc1ccc(N2C(=O)CC(Sc3n[nH]c(-c4ccc(C)cc4)n3)C2=O)cc1 (stereo not shown)	-4.46
Cc1cc(=O)[nH]c(=O)n1Cc1ccccc1	5.55
O=C(Cc1ccccc1[N+](=O)[O-])NCc1ccco1	8.1
COc1ccc(C(=O)Nc2ccccc2C(=O)NCc2ccco2)cc1OC	-7.91
Cc1ccc(S(=O)(=O)N2CCN(C(=O)N3CCCC3)CC2)cc1	1.88
Cc1cc(=O)oc2c(C)c(OC(C)C(=O)NC(Cc3c[nH]c4ccc(O)cc34)C(=O)O)ccc12 (stereo not shown)	13.8
CCN(c1ccccc1)S(=O)(=O)c1ccc(OC)c(NC(=O)CN(C)C)c1.O=C(O)C(=O)O	-5.1
